# Measurements reported in the supplement of paper PMC12217912.
# The other results are listed elsewhere or left out. Sequences were assembled here from the parent chain. Values near 0.05 are background.
# B1: TEV protease; numbered along this chain (parent)
# chain: MGESLFKGPRDYNPISSSICHLTNESDGHTTSLYGIGFGPFIITNKHLFRRNNGTLVVQSLHGVFKVKDTTTLQQHLVDGRDMIIIRMPKDFPPFPQKLKFREPQREERICLVTTNFQTKSMSSMVSDTSCTFPSGDGIFWKHWIQTKDGQCGSPLVSTRDGFIVGIHSASNFTNTNNYFTSVPKNFMELLTNQEAQQWVSGWRLNADSVLWGGHKVFMVKPEEPFQPVKEATQL
# Variants of: B1
# Experiment: raw area under fraction-flipped curve 0-4 h after induction (AUC4h, not background-subtracted), DNA-recorder readout of cleavage of the substrate (dimensionless); higher = more cleavage of the substrate by the protease variant
# Conditions: temperature: 34 °C; time window: 0-4 h after rhamnose induction
# Method: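 In vivo DNA recorder in E. coli TOP10(DE3) ΔrhaA at 34 °C. Each TEVp single-site mutant (parent TEVp 0) is paired with a single-site variant of the 7-mer TEVs (canonical ENLYFQ|S). The substrate sits between flexible linkers in a Bxb1-sfGFP-TEVs-SsrA fusion, so cleavage stabilises Bxb1 and speeds flipping of a recombination array, read by NGS. The value is the raw area under the fraction-flipped curve over 0-4 h after rhamnose induction (AUC4h), with ≥20 reads per time point. It is not background-subtracted; inactive controls average about 0.047.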
# 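Note: Bxb1 expression induced with 0.2% (w/v) L-rhamnose at OD600 near 0.5, cultures sampled hourly, flipped fraction per protease–substrate barcode pair counted by paired-end Illumina sequencing.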
variant,measurement,value
MGESLFKGPRDYNPISSSICHLTNESDGHTTSLYGIGFGPFIITNKHLFRRNNGTLVVQSLHGVFKVKDTTTLQQHLVDGRDMIIIRMPKDFPPFPQKLKFREPQREERICLVTTNFQTKSMSSMVSDTSCTFPSGDGIFWKHWIQTKDGQCGSPLVSTRDGFIVGIHSASNFTNTNNYFTSVPKNFMELLTNQEAQAWVSGWRLNADSVLWGGHKVFMVKPEEPFQPVKEATQL [Q198A],area with substrate ENAYFQS,0.0587
same,area with substrate ENCYFQS,0.0687
same,area with substrate ENFYFQS,0.0498
same,area with substrate ENGYFQS,0.0779
same,area with substrate ENNYFQS,0.07
same,area with substrate ENPYFQS,0.0381
same,area with substrate ENRYFQS,0.0591
same,area with substrate ENSYFQS,0.0607
same,area with substrate ENTYFQS,0.0533
same,area with substrate ENVYFQS,0.0875
same,area with substrate ENYYFQS,0.0591
MGESLFKGPRDYNPISSSICHLTNESDGHTTSLYGIGFGPFIITNKHLFRRNNGTLVVQSLHGVFKVKDTTTLQQHLVDGRDMIIIRMPKDFPPFPQKLKFREPQREERICLVTTNFQTKSMSSMVSDTSCTFPSGDGIFWKHWIQTKDGQCGSPLVSTRDGFIVGIHSASNFTNTNNYFTSVPKNFMELLTNQEAQTWVSGWRLNADSVLWGGHKVFMVKPEEPFQPVKEATQL [Q198T],area with substrate ENAYFQS,0.056
same,area with substrate ENDYFQS,0.0573
same,area with substrate ENEYFQS,0.0383
same,area with substrate ENFYFQS,0.0576
same,area with substrate ENIYFQS,0.107
same,area with substrate ENKYFQS,0.0521
same,area with substrate ENMYFQS,0.0614
same,area with substrate ENQYFQS,0.0309
same,area with substrate ENRYFQS,0.0588
same,area with substrate ENSYFQS,0.0584
same,area with substrate ENVYFQS,0.0719
same,area with substrate ENYYFQS,0.0589
MGESLFKGPRDYNPISSSICHLTNESDGHTTSLYGIGFGPFIITNKHLFRRNNGTLVVQSLHGVFKVKDTTTLQQHLVDGRDMIIIRMPKDFPPFPQKLKFREPQREERICLVTTNFQTKSMSSMVSDTSCTFPSGDGIFWKHWIQTKDGQCGSPLVSTRDGFIVGIHSASNFTNTNNYFTSVPKNFMELLTNQEAQNWVSGWRLNADSVLWGGHKVFMVKPEEPFQPVKEATQL [Q198N],area with substrate ENAYFQS,0.0528
same,area with substrate ENCYFQS,0.057
same,area with substrate ENDYFQS,0.0651
same,area with substrate ENEYFQS,0.0513
same,area with substrate ENFYFQS,0.0532
same,area with substrate ENGYFQS,0.0653
same,area with substrate ENNYFQS,0.067
same,area with substrate ENPYFQS,0.0596
same,area with substrate ENQYFQS,0.0408
same,area with substrate ENRYFQS,0.0454
same,area with substrate ENSYFQS,0.0581
MGESLFKGPRDYNPISSSICHLTNESDGHTTSLYGIGFGPFIITNKHLFRRNNGTLVVQSLHGVFKVKDTTTLQQHLVDGRDMIIIRMPKDFPPFPQKLKFREPQREERICLVTTNFQTKSMSSMVSDTSCTFPSGDGIFWKHWIQTKDGQCGSPLVSTRDGFIVGIHSASNFTNTNNYFTSVPKNFMELLTNQEAQLWVSGWRLNADSVLWGGHKVFMVKPEEPFQPVKEATQL [Q198L],area with substrate ENAYFQS,0.0467
same,area with substrate ENCYFQS,0.0744
same,area with substrate ENDYFQS,0.0715
same,area with substrate ENFYFQS,0.0502
same,area with substrate ENGYFQS,0.0623
same,area with substrate ENHYFQS,0.0614
same,area with substrate ENIYFQS,0.0899
same,area with substrate ENKYFQS,0.0628
same,area with substrate ENMYFQS,0.0736
same,area with substrate ENNYFQS,0.0676
same,area with substrate ENPYFQS,0.0503
same,area with substrate ENQYFQS,0.058
same,area with substrate ENRYFQS,0.0607
same,area with substrate ENVYFQS,0.0662
same,area with substrate ENWYFQS,0.0539
MGESLFKGPRDYNPISSSICHLTNESDGHTTSLYGIGFGPFIITNKHLFRRNNGTLVVQSLHGVFKVKDTTTLQQHLVDGRDMIIIRMPKDFPPFPQKLKFREPQREERICLVTTNFQTKSMSSMVSDTSCTFPSGDGIFWKHWIQTKDGQCGSPLVSTRDGFIVGIHSASNFTNTNNYFTSVPKNFMELLTNQEAQQFVSGWRLNADSVLWGGHKVFMVKPEEPFQPVKEATQL [W199F],area with substrate ENAYFQS,0.0656
same,area with substrate ENCYFQS,0.0625
same,area with substrate ENDYFQS,0.0576
same,area with substrate ENGYFQS,0.0435
same,area with substrate ENNYFQS,0.0581
same,area with substrate ENPYFQS,0.0682
same,area with substrate ENQYFQS,0.0573
same,area with substrate ENRYFQS,0.0632
same,area with substrate ENSYFQS,0.0539
same,area with substrate ENTYFQS,0.0578
same,area with substrate ENVYFQS,0.0561
same,area with substrate ENYYFQS,0.0666
MGESLFKGPRDYNPISSSICHLTNESDGHTTSLYGIGFGPFIITNKHLFRRNNGTLVVQSLHGVFKVKDTTTLQQHLVDGRDMIIIRMPKDFPPFPQKLKFREPQREERICLVTTNFQTKSMSSMVSDTSCTFPSGDGIFWKHWIQTKDGQCGSPLVSTRDGFIVGIHSASNFTNTNNYFTSVPKNFMELLTNQEAQQPVSGWRLNADSVLWGGHKVFMVKPEEPFQPVKEATQL [W199P],area with substrate ENAYFQS,0.0595
same,area with substrate ENCYFQS,0.0904
same,area with substrate ENDYFQS,0.0582
same,area with substrate ENEYFQS,0.056
same,area with substrate ENFYFQS,0.0612
same,area with substrate ENGYFQS,0.0509
same,area with substrate ENHYFQS,0.0675
same,area with substrate ENIYFQS,0.0753
same,area with substrate ENMYFQS,0.0541
same,area with substrate ENNYFQS,0.0641
same,area with substrate ENQYFQS,0.0858
same,area with substrate ENRYFQS,0.0539
same,area with substrate ENSYFQS,0.0687
same,area with substrate ENTYFQS,0.0632
same,area with substrate ENVYFQS,0.0687
same,area with substrate ENYYFQS,0.0613
MGESLFKGPRDYNPISSSICHLTNESDGHTTSLYGIGFGPFIITNKHLFRRNNGTLVVQSLHGVFKVKDTTTLQQHLVDGRDMIIIRMPKDFPPFPQKLKFREPQREERICLVTTNFQTKSMSSMVSDTSCTFPSGDGIFWKHWIQTKDGQCGSPLVSTRDGFIVGIHSASNFTNTNNYFTSVPKNFMELLTNQEAVQWVSGWRLNADSVLWGGHKVFMVKPEEPFQPVKEATQL [Q197V],area with substrate ENAYFQS,0.0532
same,area with substrate ENCYFQS,0.0604
same,area with substrate ENDYFQS,0.0623
same,area with substrate ENEYFQS,0.0654
same,area with substrate ENFYFQS,0.0536
same,area with substrate ENGYFQS,0.0718
same,area with substrate ENHYFQS,0.0554
same,area with substrate ENIYFQS,0.124
same,area with substrate ENKYFQS,0.0692
same,area with substrate ENMYFQS,0.0839
same,area with substrate ENNYFQS,0.0821
same,area with substrate ENPYFQS,0.0395
same,area with substrate ENQYFQS,0.062
same,area with substrate ENSYFQS,0.0594
same,area with substrate ENTYFQS,0.0615
same,area with substrate ENVYFQS,0.0748
same,area with substrate ENWYFQS,0.0048
same,area with substrate ENYYFQS,0.0491
MGESLFKGPRDYNPISSSICHLTNESDGHTTSLYGIGFGPFIITNKHLFRRNNGTLVVQSLHGVFKVKDTTTLQQHLVDGRDMIIIRMPKDFPPFPQKLKFREPQREERICLVTTNFQTKSMSSMVSDTSCTFPSGDGIFWKHWIQTKDGQCGSPLVSTRDGFIVGIHSASNFTNTNNYFTSVPKNFMELLTNNEAQQWVSGWRLNADSVLWGGHKVFMVKPEEPFQPVKEATQL [Q194N],area with substrate ENAYFQS,0.0402
same,area with substrate ENEYFQS,0.0748
same,area with substrate ENFYFQS,0.0637
same,area with substrate ENGYFQS,0.0652
same,area with substrate ENHYFQS,0.0368
same,area with substrate ENKYFQS,0.0553
same,area with substrate ENQYFQS,0.0551
same,area with substrate ENSYFQS,0.0536
same,area with substrate ENTYFQS,0.064
same,area with substrate ENVYFQS,0.0612
MGESLFKGPRDYNPISSSICHLTNESDGHTTSLYGIGFGPFIITNKHLFRRNNGTLVVQSLHGVFKVKDTTTLQQHLVDGRDMIIIRMPKDFPPFPQKLKFREPQREERICLVTTNFQTKSMSSMVSDTSCTFPSGDGIFWKHWIQTKDGQCGSPLVSTRDGFIVGIHSASNFTNTNNYFTSVPKNFMELLTNHEAQQWVSGWRLNADSVLWGGHKVFMVKPEEPFQPVKEATQL [Q194H],area with substrate ENAYFQS,0.0493
same,area with substrate ENCYFQS,0.0631
same,area with substrate ENEYFQS,0.0598
same,area with substrate ENFYFQS,0.0448
same,area with substrate ENGYFQS,0.0575
same,area with substrate ENHYFQS,0.0508
same,area with substrate ENIYFQS,0.158
same,area with substrate ENKYFQS,0.0891
same,area with substrate ENMYFQS,0.102
same,area with substrate ENNYFQS,0.0533
same,area with substrate ENQYFQS,0.0536
same,area with substrate ENRYFQS,0.0498
same,area with substrate ENVYFQS,0.0738
same,area with substrate ENWYFQS,0.0488
same,area with substrate ENYYFQS,0.0813
